The values that follow come from the supplement of paper PMC11417369.

± gives the standard deviation of the averaged measurements. Some of the results follow.

This assay has as its system PfAP2-I AP2 domain 3 (GST-tagged). The assay can be described thus: gcPBM binding intensity (ln(normalized median fluorescence intensity)); higher = stronger DNA binding. The method in brief: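 The highest Masliner-normalised natural-log median intensity across replicate spots of either probe orientation is reported as binding intensity. GST-tagged P. falciparum DNA-binding domains expressed in E. coli were applied for 1 h to an Agilent 4 × 180k array of primer-extended double-stranded 36-bp intergenic genomic probes plus negative controls, and bound protein was detected with Alexa488 anti-GST antibody and scanned at 488 nm.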
As to “TTACAAAAATTTTGTTCACACATAAAAATATGTTAC [CACACA_site5740]”, the “gcPBM binding intensity (ln)” value was 7.5 ± 0.6.
To “ATATATTTTTCAAAATGTACAAATAATTAAATACCA [XGTACX_site875]” belongs 7.72 ± 0.38; to “TAATAAATTATTTTTTATTATTTTAATAACACTTCA [CACACA_negctrl_site3]”, 7.24 ± 0.39; to “ATATAAAAAAATTGCACACATAAATATATACATATA [CACACA_site1218]”, 8.47 ± 0.042.
With “TTTATGTACAGACATATACACACCTCTATAATATAT [CACACA_site730]” the figure was 8.1 ± 0.11.
“GATACATAGAAACACACACACATACATATATACATA [CACACA_site3438]”: the “gcPBM binding intensity (ln)” value amounted to 8.01 ± 0.4.
Take “TATTGTAATATTATATATATCTATTATGTATATAAA [CACACA_negctrl_site454]”: the “gcPBM binding intensity (ln)” value was determined as 7.38 ± 0.26.
To “AATTATATATTAAAAAGTACAAGTTAATATAATATA [XGTACX_site2737]” belongs 7.71 ± 0.34.
As for “ATGAATATATATATTTGTACATATGTATATATATAT [XGTACX_site7527]”, the “gcPBM binding intensity (ln)” value is 9.05 ± 0.5.
With “TATATATTTTTTTCATGTACTTATTATATATATATA [XGTACX_site5321]” the figure was 9.12 ± 0.2; with “GGAAATATAAAATCATGTACATATGTATATATAATT [XGTACX_site5491]”, 7.81 ± 0.45.
With “AGTATAGATGTATACACACACCAAACGTTAAAAAAA [CACACA_site7443]” the figure was 7.89 ± 0.71.
With “CCGATATAATGGAAAACACACAAAAGATATATATAT [CACACA_site2683]” the figure was 9.01 ± 0.15.
On to “ACATACATTTTTAAATGTACATATATATATATATAT [XGTACX_site6751]”, for which the “gcPBM binding intensity (ln)” value is 9.29 ± 0.35.
With “ATATGGCACATATGTACACACGTATAGATAATATTA [CACACA_site5162]” the figure was 8.58 ± 0.014; with “ATTTATTTATTTATATGTACTTAAATGAAAGGAATA [XGTACX_site6024]”, 7.92 ± 0.092; with “TTTCAAAATTTTTATTTTAAATAAACATTTATAAAA [CACACA_negctrl_site1588]”, 7.47 ± 0.27.
With “AATATTATATGGACGTGTCCACATAAACCTATATAT [XGTACX_site2053]” the figure was 7.75 ± 0.52; with “TTAGTAAATACATTTGCACACATTATTTTTTAACAT [CACACA_site5448]”, 9.36 ± 0.11.
With “TATATATATATATATATATATATATATATAATATTA [XGTACX_negctrl_site558]” the figure was 9.26 ± 0.76; with “AATCATATTTAGATTACACACAGTTTAAATATTTTA [CACACA_site1263]”, 7.54 ± 0.56.
For “TGTAATGTTTACAACACACAAATTATAAATACAAAA [CACACA_site5047]”, the “gcPBM binding intensity (ln)” value is 7.67 ± 0.59.
To “TATTTAAATGGATGCACACATGCATTAAATAAAATA [CACACA_site3433]” belongs 9.04 ± 0.73.
To “TACAAACAGACATATACACACAAAAAAAAAATAAAA [CACACA_site2562]” belongs 7.75 ± 0.4; to “TCGATATATAGACACACACACTTTTAATAATTAAAT [CACACA_site7726]”, 8.01 ± 0.34.
With “TTATGCAGATAAAAGAGTACATATTCGTTACATACA [XGTACX_site2849]” the figure was 7.92 ± 0.42; with “ATATAAATATAGTGTGCACACACATAATATATATAT [CACACA_site8713]”, 9.49 ± 0.11.
Turning to “TATATTTTAAAATTATGTACATATATAGATAAATGT [XGTACX_site1349]”, the “gcPBM binding intensity (ln)” value stood at 7.96 ± 0.52.
To “AAAATAAATTGTGAAGGTACACAAATTATTATGTGG [XGTACX_site4196]” belongs 7.64 ± 0.34; to “ATATATATATATAATACACACATCATAAAATATGTA [CACACA_site2518]”, 9.35 ± 0.3; to “TATCATCATGTATGTACACACATACAGATATTATGT [CACACA_site4888]”, 7.72 ± 0.27.
For “AAATACAAAATTGTTACACACATATTAATTATGACA [CACACA_site476]”, the “gcPBM binding intensity (ln)” value was determined as 7.6 ± 0.49.
With “AAAAAGAAAAAATATATTCGTCTATTATAAACAATA [CACACA_negctrl_site648]” the figure was 7.22 ± 0.49; with “TAAATATTAACAATCGCACACATATTATTTTTCCAA [CACACA_site1626]”, 7.82 ± 0.5.
With “GAATATATATTCATATGTACACAATTTATGTATTAT [XGTACX_site4719]” the figure was 7.98 ± 0.33; with “AAGGTAAACAGACACACACACATACAAAAAAAAAAA [CACACA_site3768]”, 8.04 ± 0.47; with “AACACATACAGATATGCACACATTTTATTCCATTAT [CACACA_site5565]”, 8.93 ± 0.2.
With “ATATATATATTATATGCACACTTATATTTCATTAGA [CACACA_site5439]” the figure was 9.845 ± 0.049; with “TATTTATAAATGAACACACACGCAATTTGAATCGAA [CACACA_site3371]”, 8.04 ± 0.46; with “TTTTTATATTTCAACATATCACAATTTTATATATCT [CACACA_negctrl_site178]”, 7.79 ± 0.47.
Take “GAATATAAACCTATTACACACATCTATATGTACATT [CACACA_site1914]”: the “gcPBM binding intensity (ln)” value was 7.96 ± 0.67.
With “CTATATCATTTTCTAGCACACACATTGTTATTACCT [CACACA_site8204]” the figure was 8.39 ± 0.81; with “ATTTTTTTTATTATTACACACATATAACAAAAAAAT [CACACA_site6934]”, 8.12 ± 0.4.
With “TTTTTTATGCTAACTTCTTTTTCCTTATAAAATTGG [TGCATGCA_negctrl_site598]” the figure was 7.81 ± 0.76.
With “TGTAATTGTTTAAAGGGTACATATATCAGATGTCTT [XGTACX_site5877]” the figure was 7.62 ± 0.54; with TTTTGTTTTTGTAGAGTGCATAAAGAAGATATGTAT, 11.1 ± 0.86; with “TGGAAACAATGACACACACACAAAAAAAAAAAAAAA [CACACA_site7494]”, 7.97 ± 0.56.
With “GTAGGGGAAAAAAAAACACACAAAAAACAACAGATC [CACACA_site1187]”, the “gcPBM binding intensity (ln)” value turned out to be 8.26 ± 0.67.
For “TTATCTCTACAAAGTGCACACACGTAAAAACATATA [CACACA_site3957]”, the “gcPBM binding intensity (ln)” value stood at 10.1 ± 0.34.
Take “ATAATAATATTTCTATGTACTTATTTTATGTATTAG [XGTACX_site1747]”: the “gcPBM binding intensity (ln)” value amounted to 7.79 ± 0.25.
To “AAAAATTAAAATATAACTAATTAATTTGTATTCATT [CACACA_negctrl_site1633]” belongs 7.24 ± 0.52.
With “TATAAATACTTAGAAACACACAAAAATATTTTATAA [CACACA_site7259]” the figure was 7.55 ± 0.67.
With “CATTATGTTGTAAATACACACATACAGATACATACA [CACACA_site4565]” the figure was 7.88 ± 0.35; with “TAAAGGCAAACAAACACACACACATAAATACAGATA [CACACA_site5204]”, 7.85 ± 0.37.
Consider “ATATGCGTTTGCAAATGTACATATTATTTATATATA [XGTACX_site7128]”, for which the “gcPBM binding intensity (ln)” value was 7.96 ± 0.42.
To “TTTTTTGGTTTTCATGCACACAATTTATAAATCTAT [CACACA_site3106]” belongs 9.12 ± 0.4; to “ATAATTCTTTTACTGTGTACATATTATCACTTATTT [XGTACX_site2456]”, 8.16 ± 0.73.
For “ATATAATGGACCATAGTGCATAAAAATAACAAAAAA [GTGCAC_site9558]”, the “gcPBM binding intensity (ln)” value amounted to 10.71 ± 0.092.
As to TTTTTATATTTTATAGTGCAAAAACTTACATAAAAT, the “gcPBM binding intensity (ln)” value is 10.2 ± 0.39.
With “TATTTTTTTTCTTTATTTATAACGCTCAATATATTC [GTGCAC_negctrl_site265]” the figure was 7.86 ± 0.54; with “TGGAAATATATATATATATATACATATATATATAGC [XGTACX_negctrl_site107]”, 7.89 ± 0.43; with “ATTTTATAACATTCATGTACACATTTCATTTATTTG [XGTACX_site3028]”, 7.91 ± 0.65.
With “CATATAAATATATATACACACACACCGTAATACATA [CACACA_site9158]” the figure was 7.89 ± 0.42; with “TTTTAATATTTTAAGAGTACAGAAATATATAATATG [XGTACX_site4955]”, 8.01 ± 0.4; with “AGAGACACTTTTTATTGTACAAGAGGAGGTTACCTT [XGTACX_site8768]”, 7.82 ± 0.6.
To “TACGAAAAAAAAAAAAAAAAAAAAAAACACAAAAAA [CACACA_negctrl_site1643]” belongs 7.43 ± 0.64; to “AATACCATAATCAATGCACACATAACAAAATATTAT [CACACA_site8873]”, 9.72 ± 0.29.
For “ACAGTATCAATATGGATAAAAATGTCCATATGCCTG [TGCATGCA_negctrl_site482]”, the “gcPBM binding intensity (ln)” value came out at 7.19 ± 0.55.
Regarding “TATATAACATATAACACACATACTTAGTATTACATA [CACACA_site3099]”, the “gcPBM binding intensity (ln)” value is 7.72 ± 0.32.
To “TTATATATACCTAAGACACACACATATATATATATA [CACACA_site8153]” belongs 9.28 ± 0.27; to “ATTAAATATGTCAAGTGTACAAAATGTAAAAAAAAA [XGTACX_site4119]”, 8.05 ± 0.61; to “TAAATATATATATACACACACACCAAAGCAATAGAT [CACACA_site2940]”, 8.38 ± 0.52.
With “GCCATTGTACCATCCACACACATATAAATATGTATA [CACACA_site7303]” the figure was 8.58 ± 0.4.
With “TGTTAATAGAAATACGTGCACACTAAAGGGAAAACA [CACACA_site1485]” the figure was 10.4 ± 0.2.
As for “TATGAAGAAAAGAATTGTACGATGTTTATTTTGTAT [XGTACX_site8614]”, the “gcPBM binding intensity (ln)” value is 7.68 ± 0.4.
To “TTGTTATCTACCTGTAGTACATATATTATGTAATAT [XGTACX_site735]” belongs 7.83 ± 0.45; to “ATATTATATATATACACACACACATGCATGCACCTA [CACACA_site106]”, 9.88 ± 0.16; to “TTTTTTAAATATATGGTGCATAGAAAGATATTATAC [GTGCAC_site9984]”, 10.8 ± 0.46.
To “ATGTGTTAAAAATGCACACAAAAAAATATACATATA [CACACA_site295]” belongs 8.62 ± 0.11.
For the sequence “ACATGTGAACATTCAATGCACACGATGTAATTATAC [CACACA_site14]”, the “gcPBM binding intensity (ln)” value was 9.33 ± 0.17.
With “AATTAAATTCGGTACTGTACATTTCAAAAATATACG [XGTACX_site48]” the figure was 7.63 ± 0.49.
To “CTTAAATTTTACTGAAGTACAAAATCGGTTCAATGA [XGTACX_site3292]” belongs 7.42 ± 0.39; to “TATACATATTTTTTTTGTACATATATAATATATATA [XGTACX_site2399]”, 7.98 ± 0.59.
To “GGGAAAAAAAAAAGCACACATACGTAAATATATAAC [CACACA_site226]” belongs 8.19 ± 0.61; to “CAATTATATAATTGAAGTACTAGGAAAGATATATAT [XGTACX_site5459]”, 8.12 ± 0.59.
On to “TAAAAAAATATTACATGTACATAAAATATATATATA [XGTACX_site4633]”, for which the “gcPBM binding intensity (ln)” value came out at 9.06 ± 0.15.
With “TTTAAAAAAAGCAGTACATGCAAAATAATAACAAGC [TGCATGCA_site392]” the figure was 8.97 ± 0.4; with “AAAGAATTTGCATATACACACAAAAAAATATATACA [CACACA_site386]”, 7.89 ± 0.32.
With “GTGTAGATATTGAAATGTACTCTCCATATAAAATAA [XGTACX_site4713]”, the “gcPBM binding intensity (ln)” value was found to be 7.67 ± 0.49.
